{
  "source": "paper PMC12136788",
  "binders": {"B1": {"name": "chr4:148551591:148551592:-_ENSMUSG00000063077_ENSMUST00000060537|mus_hu|mus_mus_mus_hu_False|28_108 (ssRNA)", "RNA": "GGGAGUUCUACAGUCCGACGAUCACCUUACAAAAUUAAAUAUCCCUGUAAAUUAGACAAUAAGCAGCAGGCAACAAAGUCUUUGCUUUGGAAUAUGUGCCAGGAAAAAUCAUGUUUUUUUUAGAUCUCAAGAGACAGUUCACACAACAGAGGAUUGAGCAUCA"}, "B2": {"name": "chr2:121837063:121837064:+_ENSMUSG00000033411_ENSMUST00000110578|mus_mus|motif|central (ssRNA)", "RNA": "GGGAGUUCUACAGUCCGACGAUCAUAUUAGUCAUUCAUAUAUUCUUAACUACCCAGUCUCUUGAUUUUUGAAGAUUUCACCGGCAGUAGAAUAUUACAGAACAAAAUAUAAAUGCAUCUUUUAAAUGAAACUUAACAUGGACUCAACAGAGGAUUGAGCAUCA"}, "B3": {"name": "chr14:72968675:72968676:-_ENSMUSG00000033487_ENSMUST00000089017|mus_mus|FALSE|FALSE (ssRNA)", "RNA": "GGGAGUUCUACAGUCCGACGAUCGUACAGGACCUCUUCACUAAAAUCACUUACACCAUAGUCAUUUUUGGCUGAUAAUCUAAAUUUACAACCCAUUGCUGGUGAGAGUUUGGUAAUUUUAAAUUGCUUCUGUGAGCCCAUGUACAACAGAGGAUUGAGCAUCA"}, "B4": {"name": "chr7:7679991:7679992:-_ENSG00000106399_ENST00000396682|hu_hu|hu_hu_hu_mus_False|78_98 (ssRNA)", "RNA": "GGGAGUUCUACAGUCCGACGAUCUGGGAUGAAUCUUUUCCAGCCUCCCCACGAAGCAGACAGGCUUGUCGAUAUACUGUGGUAACAUGCUGGCGUUGACGCGCGCUUUGGGGAGCUGCAUUAUGUCCUCCAUGAUUCUGCCGCCAACAGAGGAUUGAGCAUCA"}, "B5": {"name": "chr5:37310712:37310713:-_ENSG00000113569_ENST00000381843|hu_mus|FALSE|FALSE (ssRNA)", "RNA": "GGGAGUUCUACAGUCCGACGAUCACAAACUGCAUCGUCUGUGCUAUACAGAAGCGGACAGGUGUCCUGCAGAUGUAAGCUAAUGCCGUCUACGGCGGCGUUGUCUCUGAUGUAGCAGUUGAUAAGAGAAGCAAUUAAUGCUCCCAACAGAGGAUUGAGCAUCA"}, "B6": {"name": "chr2:202488911:202488912:-_ENSG00000155755_ENST00000286196|hu_mus|hu_hu_hu_mus_False|28_38 (ssRNA)", "RNA": "GGGAGUUCUACAGUCCGACGAUCAUUGAAACAUUUUUCAUAAUCUCCAGUAGCAUUUCAGCAUUAUGUAACAAAAGCUCAAUUGUAAAUACAUGUAUAUACAUCUUAUAAAAAUACAAACACGAGUGGGGAGCGCAGGCGCCACAACAGAGGAUUGAGCAUCA"}, "B7": {"name": "chr7:135612270:135612271:-_ENSG00000105887_ENST00000393085|hu_mus|hu_hu_hu_mus_False|48_108 (ssRNA)", "RNA": "GGGAGUUCUACAGUCCGACGAUCGUUUCUGAGAUGUAUGUUAAAUAGUACUUCAGUGGAAAACAAAACUUAACCUUUUAUUAAUGCAUGUAGUACCAAAAGCAGACAUUUUAGCUUCAUUUAUUCAAAAAUAUUAACAUUAAGCAACAGAGGAUUGAGCAUCA"}, "B8": {"name": "chr2:32088997:32088998:+_ENSMUSG00000039262_ENSMUST00000036691|mus_hu|FALSE|FALSE (ssRNA)", "RNA": "GGGAGUUCUACAGUCCGACGAUCUUUUCCCCCUUAAGGAACCUAGAGCCAGAGUGUCUAUGAAUUCCAAGUUUGAAAACAAUAUGAAUGUUUAAAAAAAAACAAAAAACGCUGUGGGGAGAAGCCAACAGUUAAGAAAACCAACAACAGAGGAUUGAGCAUCA"}, "B9": {"name": "chr2:202488911:202488912:-_ENSG00000155755_ENST00000286196|hu_mus|hu_hu_hu_mus_False|38_78 (ssRNA)", "RNA": "GGGAGUUCUACAGUCCGACGAUCAUUGAAACAUUUUUCAUAAUCUCCAGUAGCAUUCAGUAUUAUAGUAACAAAAGCUCAAUUGUAAAUACAUGUAUAUACAUCUUAUACACUUAAAAACACGAGUGGGGAGCGCAGGCGCCACAACAGAGGAUUGAGCAUCA"}, "B10": {"name": "chr1:149898447:149898448:-_ENSG00000143368_ENST00000271628|hu_mus|FALSE|FALSE (ssRNA)", "RNA": "GGGAGUUCUACAGUCCGACGAUCGAGUCUUUCAGCUGCUGAGCCAUGGCGUUCACCCUUAGAGUCCUUCUUGAAGGCAUAAGACACAGUGAUAGGACGGUUACACAGGUACUGCCCGUUCAUGGCCUCAAUUGCUGCAUCCGACAACAGAGGAUUGAGCAUCA"}, "B11": {"name": "chr3:148802587:148802588:-_ENSG00000071794_ENST00000310053|hu_mus|hu_hu_hu_mus_False|68_98 (ssRNA)", "RNA": "GGGAGUUCUACAGUCCGACGAUCUCCAACAACUUGUCCUCUCAAACUUCCAAAUAAAACCAAAUCUACUUCUUCAUCACUCGUUAGGAAGUCAUCUGGAGGAAUAAUGUCUUGGAAUUCAAAAUGUGGCAAGAAAGUUGAGUACAACAGAGGAUUGAGCAUCA"}, "B12": {"name": "147807452_147813048_2823_CDS_ENSG00000145868_ENST00000340253|human|control|control (ssRNA)", "RNA": "GGGAGUUCUACAGUCCGACGAUCAGUGGAUUUAUCUGCUGUCCGCUUCCGUUUCAUGGCGUGACGUGGCUUUGUUUUGGCUACUUCUGACUCAGAUACCAGCAGUACAUGGGACAGUCUGCUCCUGGCCCUGGUUAGGGGCCUCAACAGAGGAUUGAGCAUCA"}, "B13": {"name": "chr5:144935201:144935202:+_ENSMUSG00000038970_ENSMUST00000041804|mus_mus|FALSE|FALSE (ssRNA)", "RNA": "GGGAGUUCUACAGUCCGACGAUCCAUUAGAUCAAAUAUUUUUUGGUGACUGGGCAGGUCAUCUGCUUUGUCAAGGUCACUAAAUAGGUUGAAAGGGCUCCCAGGGAUGCUGGUAGCACGUGAGUCCUCGGUAGAGCUGGCUUCCAACAGAGGAUUGAGCAUCA"}, "B14": {"name": "chr6:38652254:38652255:-_ENSG00000124767_ENST00000373365|hu_hu|hu_hu_hu_mus_False|18_88 (ssRNA)", "RNA": "GGGAGUUCUACAGUCCGACGAUCCGAGAACUUCAUAGCAGGGAAGUCACAUUUUUGCAGGAGGGUCAGUCCAAGAACCCUCGUAUAAAAAUCCAGGGACUUCUUAGGAUCCUUAAUUCGUAGCAUGGUUUGCUGCAGUAGAAACAACAGAGGAUUGAGCAUCA"}, "B15": {"name": "chr1:39494564:39494565:+_ENSG00000168653_ENST00000372967|hu_hu|hu_hu_hu_mus_True|58_68 (ssRNA)", "RNA": "GGGAGUUCUACAGUCCGACGAUCAUGCAUUCGCCUCAUCGUUUUGUACCGAAGCAAGCACUCUUCGAAAUCAUCAUAUUCUAUCUUGCACUCCUUUUUCGCCCGGGUCCCACCGAUCCCGUGUGCACACUCUAUCCACUCUUUCAACAGAGGAUUGAGCAUCA"}, "B16": {"name": "chr17:35253193:35253194:-_ENSMUSG00000024387_ENSMUST00000025246|mus_hu|motif|central (ssRNA)", "RNA": "GGGAGUUCUACAGUCCGACGAUCCCUUUUCUUCUACUUUAUUUCAUAUUCCCACCACGAUAACGACUCCUUUAAUUUAAACGGAAAACCAUACAGGGUUCCUGAAAGGGUGGCAAAAAAGAAAGGAAAAGUCAAAGACUGCAGCAACAGAGGAUUGAGCAUCA"}, "B17": {"name": "119173889_119174009_6555_3pUTR_ENSG00000110395_ENST00000264033|human|control|control (ssRNA)", "RNA": "GGGAGUUCUACAGUCCGACGAUCUCAGAAAGGCCAACGGCAAGAAGAGGGACUUAUAGUUUGAGAAGGUCUAUAAUCUUCUGACUUUAAUGACGUGAGGUAGGAGAAUAUUCUGCUUUAUCACCAUUGCUGAACACCUACAAACAACAGAGGAUUGAGCAUCA"}, "B18": {"name": "chr3:132390928:132390929:+_ENSG00000081307_ENST00000264991|hu_hu|motif|central (ssRNA)", "RNA": "GGGAGUUCUACAGUCCGACGAUCACUGGCUGCACAAACACCUUCUCGUUUCAGAGUCUUUUCAUCAAUAUUUGCAGCAACGGCAAGUGGUGGAGCACACGCAAAACAAGCAGAUUCUCCAGGAAUUAUAAGCUGUAUAUGCCCCAACAGAGGAUUGAGCAUCA"}, "B19": {"name": "chr14:103931940:103931941:+_ENSG00000075413_ENST00000216288|hu_mus|motif|central (ssRNA)", "RNA": "GGGAGUUCUACAGUCCGACGAUCACAAAACGUGUCUAGUUUACUGCCAACAGUAAAUUCAUUGCUAAAACCAAAAUCUGCGGUUUUAAUGUUCAUAUCCGCAUCUAAUAACAGAUUUUCAGCCUUGAGGUCUCUGUGAACAAUCAACAGAGGAUUGAGCAUCA"}, "B20": {"name": "chr19:36933551:36933552:+_ENSMUSG00000024811_ENSMUST00000025729|mus_mus|FALSE|FALSE (ssRNA)", "RNA": "GGGAGUUCUACAGUCCGACGAUCAUGGCCUUUAAAUUCAUACGAUAAUCUUUCCUUCAGCUGUGCCGUGGGGGCCAGGUCUAUAGCACUUUUAUUGUGACAGUUCAGCAGGGUUGGAUCUGCCCCGUAACUUAGGAGGAGAGACAACAGAGGAUUGAGCAUCA"}, "B21": {"name": "chr14:59854306:59854307:+_ENSMUSG00000035469_ENSMUST00000043227|mus_hu|FALSE|FALSE (ssRNA)", "RNA": "GGGAGUUCUACAGUCCGACGAUCAAUGGGCUCAAGAAAAGCCGUACACCCUUGUUAUGUUCCUACACAAACAACUGUGUCCCAGAUGUGGAAAAAAACAACCUGAUGGUCUUUUACCUGCAGAAUCACAUCACCCGUAGAGCACAACAGAGGAUUGAGCAUCA"}, "B22": {"name": "chr15:43486971:43486972:+_ENSG00000166946_ENST00000300213|hu_mus|motif|central (ssRNA)", "RNA": "GGGAGUUCUACAGUCCGACGAUCGAGCGCCUUAAUUCUGUUCAUGCAAUGGUCAACGGCAUUAAUGAGUAAAGGAAUCCAGCGGUCUCCUGGGUGGGGGCUCACGUGACUUGCUUUUGUAAUUUCAAGAGCCUUUAUUAAAACCAACAGAGGAUUGAGCAUCA"}},
  "note": "The list shows a part of the results.",
  "data": [
    {"biological_target": "T1, UNK ZnF1-3 (human, UniProt Q9C0B0 31-174)", "T1 sequence": "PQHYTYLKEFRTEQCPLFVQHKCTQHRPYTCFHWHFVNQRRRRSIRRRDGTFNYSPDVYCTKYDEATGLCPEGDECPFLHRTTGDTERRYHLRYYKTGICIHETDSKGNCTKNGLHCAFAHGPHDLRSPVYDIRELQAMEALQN", "assay": "nsRBNS (natural sequence RNA bind-n-seq); RBNS binding buffer (assumed for nsRBNS): 25 mM Tris pH 7.5, 150 mM KCl, 3 mM MgCl2, 0.01% Triton X-100, 500 ug/ml BSA, 20 U/ml SUPERase-In, 4 C; UNK is unkempt and MSI1 is Musashi-1; names of the RNAs are library labels; protein concentration not given here; high values mean tight binding", "units": {"binding signal": "enrichment R"}, "values": [
      {"binder": "B1", "binding signal": 1.18},
      {"binder": "B2", "binding signal": 0.615},
      {"binder": "B3", "binding signal": 0.984},
      {"binder": "B4", "binding signal": 0.674},
      {"binder": "B5", "binding signal": 0.48},
      {"binder": "B6", "binding signal": 1.11},
      {"binder": "B7", "binding signal": 1.07},
      {"binder": "B8", "binding signal": 1.79},
      {"binder": "B9", "binding signal": 1.27},
      {"binder": "B10", "binding signal": 0.555},
      {"binder": "B11", "binding signal": 0.988},
      {"binder": "B12", "binding signal": 0.591},
      {"binder": "B13", "binding signal": 0.749},
      {"binder": "B14", "binding signal": 0.814},
      {"binder": "B15", "binding signal": 0.728},
      {"binder": "B16", "binding signal": 1.47},
      {"binder": "B17", "binding signal": 1.5},
      {"binder": "B18", "binding signal": 1.81},
      {"binder": "B19", "binding signal": 0.589},
      {"binder": "B20", "binding signal": 1.04},
      {"binder": "B21", "binding signal": 0.971},
      {"binder": "B22", "binding signal": 1.37}
    ]}
  ]
}
